Numbering of substitutions follows the chain as printed. In names and notes the source's numbering stands.

The target of assay [1] is T1, Recombinant human serum albumin (human, UniProt P02768).
T1 construct: Analyte in SPR, 0-500 nM
The assay can be described thus: SPR, Fc-VHH captured on anti-human Fc, human albumin as analyte, pH 6.0; pH 6.0. (In general: SPR reads the build-up and loss of mass on a sensor chip optically.)

Assay [2] has as its target T1, Recombinant human serum albumin. The assay can be described thus: SPR, Fc-VHH captured on anti-human Fc, human albumin as analyte, pH 7.4.
The target is the same in assay [3]. The assay can be described thus: SPR, Fc-VHH captured on anti-human Fc, human albumin as analyte, pH 6.0.
Assay [4] has as its target T2, Recombinant mouse serum albumin (mouse, UniProt P07724 25-608).
T2 construct: Analyte in SPR, 0-500 nM
T2 sequence (P07724 25-608 limits assumed): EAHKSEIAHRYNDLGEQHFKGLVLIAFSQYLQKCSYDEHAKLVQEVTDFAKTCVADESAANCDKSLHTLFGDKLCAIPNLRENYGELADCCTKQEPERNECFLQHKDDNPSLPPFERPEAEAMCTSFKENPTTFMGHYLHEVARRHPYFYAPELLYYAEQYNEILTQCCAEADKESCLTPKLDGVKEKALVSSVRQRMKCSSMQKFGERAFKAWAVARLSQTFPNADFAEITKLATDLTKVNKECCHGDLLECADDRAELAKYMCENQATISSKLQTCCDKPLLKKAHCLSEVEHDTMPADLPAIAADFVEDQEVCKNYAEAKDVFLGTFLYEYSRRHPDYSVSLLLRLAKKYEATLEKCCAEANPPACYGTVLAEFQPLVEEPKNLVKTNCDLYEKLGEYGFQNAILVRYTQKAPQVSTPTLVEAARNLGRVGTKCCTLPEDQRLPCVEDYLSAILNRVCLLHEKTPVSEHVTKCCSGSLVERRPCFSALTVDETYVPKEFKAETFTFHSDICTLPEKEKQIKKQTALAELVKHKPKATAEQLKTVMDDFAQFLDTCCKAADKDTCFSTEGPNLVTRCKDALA
The assay can be described thus: SPR, Fc fusion captured on anti-human Fc, mouse albumin as analyte, pH 6.0.

Assay [5] addresses T3, Recombinant rat serum albumin (rat, UniProt P02770 25-608).
T3 construct: Analyte in SPR, 0-500 nM
T3 sequence (P02770 25-608 limits assumed): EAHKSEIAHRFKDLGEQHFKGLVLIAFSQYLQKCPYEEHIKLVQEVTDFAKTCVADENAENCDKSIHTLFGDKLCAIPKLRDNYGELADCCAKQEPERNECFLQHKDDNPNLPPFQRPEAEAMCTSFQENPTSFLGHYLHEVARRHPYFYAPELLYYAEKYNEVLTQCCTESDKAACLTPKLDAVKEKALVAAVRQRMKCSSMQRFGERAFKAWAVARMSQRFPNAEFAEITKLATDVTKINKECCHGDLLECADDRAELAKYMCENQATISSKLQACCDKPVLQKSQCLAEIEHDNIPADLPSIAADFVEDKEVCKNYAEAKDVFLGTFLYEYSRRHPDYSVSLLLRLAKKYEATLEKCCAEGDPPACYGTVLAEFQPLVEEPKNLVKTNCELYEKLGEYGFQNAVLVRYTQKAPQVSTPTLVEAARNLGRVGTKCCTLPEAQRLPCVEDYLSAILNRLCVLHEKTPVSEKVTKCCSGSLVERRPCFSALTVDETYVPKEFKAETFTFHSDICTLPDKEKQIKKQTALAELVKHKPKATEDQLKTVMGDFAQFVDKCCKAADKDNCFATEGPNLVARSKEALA
The assay can be described thus: SPR, Fc fusion captured on anti-human Fc, rat albumin as analyte, pH 6.0.

For assay [6], the target named is T1, Recombinant human serum albumin. The assay can be described thus: SPR, VHH-Fc captured on anti-human Fc, human albumin as analyte, pH 6.0.
Assay [7] has the same target. The assay can be described thus: SPR, VHH-Fc captured on anti-human Fc, human albumin as analyte, pH 7.4.
Assay [8] has the same target. The assay can be described thus: SPR, VHH-Fc captured on anti-human Fc, human albumin as analyte, pH 6.0; pH 6.0.

B1: Fc-VHH 1-8 fusion (SEQ ID NO: 42) (Fc fusion)
chain: [letters of human IgG1 Fc left out]GGGSEVQLVESGGGLVQPGGSLRLSCAASGFTFGQFGMSWVRQAPGKGLEWVSAISSDGSGTIYADSVKGRFTISRDNSKNTLYLQMNSLRAEDTAVYYCTIGSSTTPSGPGQGTTVTVSS
Regarding B1, in assay [1], the Kd – broadly, a measure of binding affinity in units of concentration – was found to be 142 nM; the off-rate (koff) (usually the first-order rate constant of dissociation) came to 0.00943 s⁻¹; the kon (in general, the second-order rate constant of association) turned out to be 66200 M⁻¹ s⁻¹.

B2: Fc-VHH 1-10 fusion (SEQ ID NO: 44) (Fc fusion)
chain: [letters of human IgG1 Fc left out]GGGSEVQLVESGGGLVQPGGSLRLSCAASGFTFGQFGMSWFRQAPGKEREFVSAISSDGSGTIYADSVKGRFTISRDNSKNTLYLQMNSLRAEDTAVYYCTIGSSTTPSGPGQGTTVTVSS
As to B2, in assay [1], the Kd turned out to be 45.3 nM, the dissociation rate constant (koff) was found to be 0.00804 s⁻¹ and the kon worked out at 177000 M⁻¹ s⁻¹.

B3: Fc-VHH 9 fusion (SEQ ID NO: 208) (Fc fusion)
chain: [letters of human IgG1 Fc left out]GGGSEVQLVESGGGLVQPGGSLRLSCAASGFTFGSFGMSWVRQAPGKGPEWVSAIDSGGADTRYAESVKGRFTISRDNAKKTLYLQMNSLKPEDTAVYYCTIGRSASRGSQGTQVTVSS
In the case of B3, in assay [2], the Kd was 4.88 nM, the koff turned out to be 0.00136 s⁻¹ and the kon was determined as 280000 M⁻¹ s⁻¹. In assay [3], the Kd worked out at 82.5 nM, the koff was 0.0133 s⁻¹ and the kon came out at 161000 M⁻¹ s⁻¹.

B4: Fc-VHH 9-1 fusion (SEQ ID NO: 209) (Fc fusion)
chain: [letters of human IgG1 Fc left out]GGGSEVQLLESGGGLVQPGGSLRLSCAASGFTFGSFGMSWVRQAPGKGPEWVSAIDSGGADTRYAESVKGRFTISRDNSKNTLYLQMNSLRPEDTAVYYCTIGRSASRGSQGTLVTVSS
Regarding B4, in assay [2], the Kd amounted to 318 nM, the koff was 0.0132 s⁻¹ and the kon came to 41400 M⁻¹ s⁻¹. Moreover, in assay [3], the Kd was 167 nM, the koff amounted to 0.388 s⁻¹ and the kon stood at 2.33e+06 M⁻¹ s⁻¹.

B5: Fc-VHH 20-1 fusion (SEQ ID NO: 217) (Fc fusion)
chain: [letters of human IgG1 Fc left out]GGGSEVQLLESGGGLVQPGGSLRLSCAASGFSFGSFGMSWVRQAPGKGPEWVSAIDSGGADTRYAETVKGRFTISRDNSKNTLYLQMNSLRPEDTAVYYCTIGRSTSRGSQGTLVTVSS
Turning to B5, in assay [2], the Kd was 306 nM, the dissociation rate constant (koff) stood at 0.0606 s⁻¹ and the kon came to 198000 M⁻¹ s⁻¹. Moreover, in assay [3], the Kd came out at 182 nM, the koff turned out to be 0.0261 s⁻¹ and the kon was determined as 143000 M⁻¹ s⁻¹.

B6: VHH 4-Fc fusion (SEQ ID NO: 145) (Fc fusion)
chain: QVQLQESGGGLVQPGGSLRLSCAASGFTFGSFGMSWVRQAPGKGPEWVSAIDSGGADTRYAESVKGRFTISRDNAKSTLYLQMNSLKPEDTAVYYCTIGRSSSRGSQGTQVTVSSGGGGS[letters of human IgG1 Fc left out]
notes: Llama VHH-G4S-wild-type IgG1 Fc
Consider B6, for which, in assay [4], the Kd came to 168 nM, the koff came out at 0.0262 s⁻¹ and the association rate constant (kon) worked out at 156000 M⁻¹ s⁻¹. For the same molecule, in assay [5], the Kd was 2290 nM, the koff was 0.0942 s⁻¹ and the kon came out at 41100 M⁻¹ s⁻¹.

B7: VHH 8-Fc fusion (SEQ ID NO: 149) (Fc fusion)
chain: B6 chain with Q1E, Q5V, G54S, S77K, S102T, G105R, S106N, S114A
notes: as for B6
For B7, in assay [4], the Kd was found to be 166 nM, the koff stood at 0.0231 s⁻¹ and the kon turned out to be 139000 M⁻¹ s⁻¹. In assay [5], the Kd is 1560 nM, the koff was determined as 0.132 s⁻¹ and the kon was found to be 84700 M⁻¹ s⁻¹.

B8: VHH 9-Fc fusion (SEQ ID NO: 150) (Fc fusion)
chain: B6 chain with Q1E, Q5V, S77K, S102T
notes: as for B6
In the case of B8, in assay [4], the Kd was determined as 159 nM, the koff is 0.0252 s⁻¹ and the kon amounted to 158000 M⁻¹ s⁻¹. Also, in assay [5], the Kd is 1570 nM, the koff stood at 0.0941 s⁻¹ and the kon turned out to be 59800 M⁻¹ s⁻¹.

B9: VHH 21-Fc fusion (SEQ ID NO: 162) (Fc fusion)
chain: B6 chain with Q5V, T28S, S63T, S77K, S102T
As for B9, in assay [4], the Kd was 162 nM, the koff was determined as 0.0245 s⁻¹ and the kon stood at 151000 M⁻¹ s⁻¹. Besides, in assay [5], the Kd worked out at 1680 nM, the koff stood at 0.0802 s⁻¹ and the kon came to 47700 M⁻¹ s⁻¹.

B10: VHH 12-Fc fusion (SEQ ID NO: 153) (Fc fusion)
chain: B6 chain with Q5V, A56G, A61S, E62D, T69A, S77K, V93A, S102T
notes: as for B6
On to B10, for which, in assay [4], the dissociation constant Kd worked out at 190 nM, the koff turned out to be 0.0291 s⁻¹ and the kon was determined as 153000 M⁻¹ s⁻¹. In addition, in assay [5], the Kd came out at 12600 nM, the koff came to 0.135 s⁻¹ and the kon is 10700 M⁻¹ s⁻¹.

B11: VHH-Fc control (SEQ ID NO: 33) (Fc fusion)
chain: EVQLLESGGGLVQPGGSLRLSCAASGFTFRSFGMSWVRQAPGKGPEWVSSISGSGSDTLYADSVKGRFTISRDNSKNTLYLQMNSLRPEDTAVYYCTIGGSLSRSSQGTLVTVSSGGGGS[letters of human IgG1 Fc left out]
notes: also called VHH-Fc fusion control; control VHH-Fc
Regarding B11, in assay [5], the Kd worked out at 461 nM.

B12: VHH 1-Fc fusion (SEQ ID NO: 5) (Fc fusion)
chain: QVQLVESGGGLVQPGGSLRLSCAASGFTFGQFGMSWVRQAPAKGPERVSAISSDGSGTIYADSVKGRFTISRDNAKNTLYLQMNSLKPEDTAVYYCTIGSSTTPSGPGQGTQVTVSSGGGGS[letters of human IgG1 Fc left out]
As to B12, the figures for the Kd in assay [4] and in assay [7] were 17.5 nM and 10.7 nM, respectively. In addition, the koff in assay [4] was determined as 0.0015 s⁻¹; in assay [6], 0.0122 s⁻¹; in assay [7] it was 0.00861 s⁻¹. In addition, the association rate constant (kon) was 85500 M⁻¹ s⁻¹ in assay [4], 1.11e+06 M⁻¹ s⁻¹ in assay [6] and 803000 M⁻¹ s⁻¹ in assay [7].

B13: VHH 1-3-Fc fusion (SEQ ID NO: 25) (Fc fusion)
chain: B12 chain with D54S
With B13, in assay [6], the Kd was 37.5 nM, the koff turned out to be 0.0176 s⁻¹ and the kon came to 468000 M⁻¹ s⁻¹. Besides, in assay [7], the Kd came to 7.61 nM, the koff worked out at 0.00462 s⁻¹ and the kon was 607000 M⁻¹ s⁻¹.

B14: VHH 1-8-Fc fusion (SEQ ID NO: 30) (Fc fusion)
chain: B12 chain with Q1E, A42G, P45L, R47W, A75S, K87R, P88A, Q112T
As for B14, in assay [6], the Kd came out at 66.7 nM, the koff stood at 0.0137 s⁻¹ and the kon came out at 206000 M⁻¹ s⁻¹. In addition, in assay [7], the Kd was 11.3 nM, the koff was determined as 0.00164 s⁻¹ and the kon was 146000 M⁻¹ s⁻¹.

B15: VHH 1-5-Fc fusion (SEQ ID NO: 27) (Fc fusion)
chain: B12 chain with G55A
B15: in assay [6], the Kd was 22.8 nM, the koff worked out at 0.0115 s⁻¹ and the kon was determined as 503000 M⁻¹ s⁻¹. For the same molecule, in assay [7], the dissociation constant (Kd) is 6.21 nM, the koff was determined as 0.00407 s⁻¹ and the kon was 656000 M⁻¹ s⁻¹.

B16: VHH 1-4-Fc fusion (SEQ ID NO: 26) (Fc fusion)
chain: B12 chain with D54G
As to B16, in assay [8], the Kd was 36.4 nM, the koff was determined as 0.013 s⁻¹ and the kon was determined as 357000 M⁻¹ s⁻¹.

B17: VHH 1-6-Fc fusion (SEQ ID NO: 28) (Fc fusion)
chain: B12 chain with G55S
B17: in assay [6], the Kd was 9.99 nM, the koff was 0.00714 s⁻¹ and the kon was found to be 715000 M⁻¹ s⁻¹. For the same molecule, in assay [7], the Kd was determined as 6.32 nM, the koff was found to be 0.00421 s⁻¹ and the association rate constant (kon) came out at 666000 M⁻¹ s⁻¹.

B18: VHH 1-7-Fc fusion (SEQ ID NO: 29) (Fc fusion)
chain: B12 chain with Q1E, A42G, P45L, R47W, A75S, K87R, P88A, P107W, Q112T
On to B18, for which, in assay [8], the Kd is 43.4 nM, the koff turned out to be 0.00368 s⁻¹ and the kon was 84800 M⁻¹ s⁻¹.

B19: VHH 9-4-Fc fusion (SEQ ID NO: 200) (Fc fusion)
chain: EVQLVESGGGLVQPGGSLRLSCAASGFTFGSFGMSWVRQAPGKGLEWVSAIDSGGADTRYAESVKGRFTISRDNSKNTLYLQMNSLRAEDTAVYYCTIGRSASRWGQGTTVTVSSGGGGS[letters of human IgG1 Fc left out]
With B19, in assay [8], the Kd is 34.2 nM, the koff is 0.0033 s⁻¹ and the kon stood at 96500 M⁻¹ s⁻¹.

B20: VHH 9-5-Fc fusion (SEQ ID NO: 201) (Fc fusion)
chain: B19 chain with W105G
For the molecule B20, in assay [6], the dissociation constant (Kd) is 27.7 nM, the koff worked out at 0.00638 s⁻¹ and the kon was determined as 230000 M⁻¹ s⁻¹. In assay [7], the Kd worked out at 1.01 nM, the koff is 0.000158 s⁻¹ and the kon worked out at 156000 M⁻¹ s⁻¹.

B21: VHH 9-7-Fc fusion (SEQ ID NO: 203) (Fc fusion)
chain: B19 chain with V37F, G44E, L45R, W47F, W105G
For the molecule B21, in assay [8], the Kd came out at 8.94 nM, the koff came to 0.00393 s⁻¹ and the kon amounted to 439000 M⁻¹ s⁻¹.

B22: VHH 9-6-Fc fusion (SEQ ID NO: 202) (Fc fusion)
chain: B19 chain with V37F, G44E, L45R, W47F
Turning to B22, in assay [8], the Kd was found to be 26.3 nM, the koff came out at 0.00525 s⁻¹ and the kon stood at 199000 M⁻¹ s⁻¹.

(Values after US20260055169A1 (PARAGON THERAPEUTICS, published 2026).)
